Assay results as given in PubChem BioAssay AID1345082 (National Center for Advancing Translational Sciences (NCATS), 2018).
About 4,000 (4.3%) of roughly 94,000 compounds were called active. The shares of active, inactive and inconclusive entries below differ from those in the screen. The call rests on the fitted dose curve; in most records, active means well fitted inhibition curve with a large enough effect; inconclusive means small, poorly fitted or top-dose-only effect; inactive means no such curve, though single readings can be large or run the other way. A potency beside an inconclusive call is a rough fit, not a confirmed value.

Assay: Cytotoxic Profiling in NIH 3T3 Cell Line of Diverse Libraries Using Quantitative High-Throughput Screening; further: nearly all actives have a fitted effect of over 55% in size
Settings: NIH 3T3 viability, CellTiter-Glo ATP luminescence, 48-72 h; activity change, negative = cytotoxicity: at 96.7 µM (top of the series) unless noted; series mostly up to 96.7 µM
Excerpt: Cell-based phenotypic screening is a commonly used approach to discover biological pathways, novel drug targets, chemical probes and high-quality hit-to-lead molecules. Many hits identified from high-throughput screening campaign are ruled out through a series of follow-up potency, selectivity/specificity, and cytotoxicity assays. Prioritization of molecules with little or no cytotoxicity for a more in-depth downstream evaluation influence the future direction of projects, so cytotoxicity profiling of the screening libraries at early stage is essential for increasing the likelihood of candidate success. In this study, we analyzed results from a cell-based cytotoxicity screening campaign, comprising nearly 10,000 compounds in NCATS annotated libraries, and over 100,000 compounds in a diversity library, evaluated in four normal cell lines (HEK 293, NIH 3T3, CRL-7250 and HaCat) and a cancer cell line (KB 3-1, a HeLa subline) with overall screening outcomes, hit rates, pan-activity and selectivity. For the annotated library, we also examined the primary targets and mechanistic pathways regularly associated with cell death. To our knowledge, this is the first study to use high-throughput screening to profile large libraries for cytotoxicity assessment in both normal and cancer cell lines. In summary, the results generated here constitutes a valuable resource for the scientific community and provides insight on identifying cytotoxic compounds with particular mechanisms of action, and prioritizing compounds with suitable cytotoxicity profile for further evaluation.
NIH 3T3 cells were seeded into white 1536-well plates using a Multidrop Combi peristaltic dispenser (ThermoFisher, Waltham, MA) at a density of 400 cells/well in 5 uL of medium respectively. A pintool (Kalypsys) was used to transfer 23 nL of compound solution to the 1536-well assay plates. After 48 or 72 hr incubation at 37 degree Celsius, 5% CO2 and 95% humidity, 2.5 uL of CellTiter-Glo (Promega) was dispensed into each well using a dispenser (Aspect Automation, St. Paul, MN) with solenoid valves (Lee Valves, Westbrook CT). Plates were left at room temperature for 10 min before imaging the ATP-coupled luminescence using a ViewLux microplate imager (PerkinElmer, Waltham, MA).
On the % scale 0 is the no-effect control and ±100 the full control effect; potency means the concentration at half of the fitted maximal effect; tags describe the fitted curve by direction and shape.

Structure (SMILES) | Potency | activity change, negative = cytotoxicity
O=C(NC1CCCCC1)N1Cc2[nH]cnc2C[C@H]1c1nc(-c2ccccc2)no1 | active: 28.2 µM | –
O=C(Nc1ccc2nnc(-c3ccc(C(=O)N4CCSCC4)cc3)n2c1)C1CCC1 | inconclusive: 70.8 µM [inhibitor, single point] | –
Oc1ccccc1CN1CCNc2cnc(-c3ccccc3)cc2C1 | inconclusive: 56.2 µM [inhibitor, partial curve, poor fit] | –
CC(=O)Nc1cccc(-c2ccc3ncn(-c4cccnc4)c(=O)c3n2)c1 | inconclusive: 56.2 µM [inhibitor, partial curve, poor fit] | –
Cn1cc(CN2C[C@H](C(=O)Nc3cccnc3)C[C@H]2c2cccc(C(F)(F)F)c2)cn1 | inconclusive: 79.4 µM [inhibitor, partial curve, poor fit] | –
COCC1CN(C2CCC2)CC12CCN(C(=O)c1nccc3ccccc13)CC2 (stereo not drawn) | – | inactive: -22.2%
CC1(c2ccccc2)N(Cc2ccccc2C#N)C(=O)OC12CCN(Cc1ccccn1)CC2 (stereo not drawn) | – | inactive: -18.1%
COc1cccc(-c2cc(C3CCN(C(=O)NCCc4ccccc4)CC3)[nH]n2)c1 | – | inactive: -3.8%
CNC(=O)c1nc2cccnc2n(-c2ccc(N(C)C)cc2)c1=O | – | inactive: -17% [at 138 µM]
Cc1ccccc1Cn1cc(-c2ccncc2)cc1C(=O)NC(C)c1ccccn1 (stereo not drawn) | inconclusive: 44.7 µM [inhibitor, partial curve, poor fit] | –
CC[C@H]1CN(C(=O)c2ccc(F)cc2)CC[C@H]1CC(=O)NCc1ccccc1OC | inconclusive: 112 µM [inhibitor, partial curve, poor fit] | –
CS(=O)(=O)Nc1ccc(C2(C(=O)NCc3ccccc3Cl)CCCCC2)cc1 | active: 35.5 µM | –
CCNc1ncnc2sc3c(c12)CCN(C(=O)NCCOC)C3 | – | inactive: -11.6%
COCCNC(=O)c1cc(-c2ccc(C)cc2)c2nncn2n1 | inconclusive: 89.1 µM [inhibitor, partial curve, poor fit] | –
O=C(c1ccc2nc[nH]c2c1)N1CCCC2(C1)Nc1cccnc1NC2=NC1CCCC1 (stereo not drawn) | – | inactive: 2.94%
Cc1ccc(C(=O)N2CCN(C(=O)c3nc4cccnc4n(CCc4ccccc4)c3=O)CC2)cc1 | – | inactive: -22%
COc1ccc(-c2cc3c(nc2-c2ccccc2)nc(C(=O)NCCN(C)C)n3C)cn1 | active: 79.4 µM | –
CC(C)NC(=O)c1cc(-c2cccc(C(F)(F)F)c2)c2cccn2n1 | inconclusive: 44.7 µM [inhibitor, partial curve, poor fit] | –
COc1cccc(C(=O)N2C[C@@H](Oc3ccccc3)C[C@@H]2C(=O)N2CCOCC2)c1 | – | inactive: -13.1%
O=C1CCNc2ccccc2CN1C1CC1 | inconclusive: 50.1 µM [inhibitor, partial curve, poor fit] | –
COc1cccc(CN2CCCC(c3nc(CCOc4cccc(C)c4)no3)C2)c1 (stereo not drawn) | inconclusive: 44.7 µM [inhibitor, partial curve, poor fit] | –

Structure (SMILES) | Potency | activity change, negative = cytotoxicity
Cc1sc2ccn(Cc3ccc(F)cc3)c(=O)c2c1C(=O)NCCCN1CCOCC1 | – | inactive: -5.06%
C[C@H]1[C@@H]2[C@H]3OC(=O)[C@@H](C)[C@@H]3CC[C@@]2(C)CC[C@@H]1NC(=O)Nc1cccc(F)c1 | inconclusive: 28.2 µM [inhibitor, full curve, poor fit] | –
COc1cccc(CC(=O)Nc2cccc(-c3nnc4n3CCCC4)c2)c1 | inconclusive: 44.7 µM [inhibitor, partial curve, poor fit] | –
CC(C)C[C@H](CO)NC(=O)C[C@@H]1c2nc(-c3cccnc3)sc2C[C@@H]2[C@](C)(CO)[C@H](O)CC[C@]21C | inconclusive: 50.1 µM [inhibitor, partial curve, poor fit] | –
CC[C@H]1CN(C(=O)c2ccnc(Cl)c2)CC[C@H]1CC(=O)O | – | inactive: -6.41% [at 174 µM]
O=C(NCCc1ccccn1)c1cn2ccnc(-c3ccccc3)c2n1 | inconclusive: 50.1 µM [inhibitor, partial curve, poor fit] | –
O=C1NCCCCCCN(Cc2ccncc2)[C@@H]2CN(C(=O)NC3CCCCC3)CC[C@@H]12 | inconclusive: 79.4 µM [inhibitor, partial curve, poor fit] | –
COc1ccc(NC(=O)c2cc3c(N(C)Cc4ccccc4)nc(C)cn3n2)cc1OC | inconclusive: 15.8 µM [inhibitor, full curve, poor fit] | –
CC1(c2ccccc2)N(Cc2cccnc2)C(=O)OC12CCN(C(=O)C1CCC1)CC2 (stereo not drawn) | active: 17.8 µM | –
CC(C)(C)COC(=O)N1C[C@@H](CO)[C@@H]2Oc3ccccc3[C@@H]21 | inconclusive: 56.2 µM [inhibitor, partial curve, poor fit] | –
CCCCOC(=O)N1C[C@@H](C(=O)OCC)[C@@H]2Oc3cc(OC)ccc3[C@@H]21 | inconclusive: 50.1 µM [inhibitor, partial curve, poor fit] | –
O=[S+]([O-])(Nc1cccnc1)c1ccc2c(c1)OCCN(CC1CCOCC1)C2 | inconclusive: 31.6 µM [inhibitor, full curve] | –
CC(C)Oc1cccc(-c2n[nH]c3c2CC(=O)N(Cc2ccccc2)C3)c1 | inconclusive: 89.1 µM [inhibitor, partial curve, poor fit] | –
COc1ccccc1-c1cc2c(ccn2CC2CCN([S+](C)(=O)[O-])CC2)c(N2CCOCC2)n1 | inconclusive: 39.8 µM [inhibitor, partial curve, poor fit] | –
COc1ccc(C2Cn3nnc(-c4nc(C)no4)c3CO2)cc1 (stereo not drawn) | – | inactive: -16%
COc1ncccc1-c1cnc2[nH]cc(CC(=O)Nc3ccccc3C)c2c1 | inconclusive: 17.8 µM [inhibitor, full curve, poor fit] | –
CC(C)N1CC(C(=O)NCCc2ccccc2F)NC1=O (stereo not drawn) | – | inactive: -22.7% [at 138 µM]
CC(C)(C)c1nnc2n1C(C(=O)NCCc1ccc(Cl)cc1)CC2 (stereo not drawn) | – | inactive: -1.32%
CCc1cccc(C)c1NC(=O)Cn1ccn2nc(-c3ccc(F)cc3)c(CO)c2c1=O | inconclusive: 50.1 µM [inhibitor, partial curve, poor fit] | –
O=C(c1cccc(F)c1)N1CCC(c2nc(C3CCOCC3)no2)C1 (stereo not drawn) | – | inactive: -20.6%
COc1ccc(N2CC(C(=O)N3CCC(C(=O)N4CCC(C#N)CC4)C3)NC2=O)cc1 (stereo not drawn) | – | inactive: 3.32%

Structure (SMILES) | Potency | activity change, negative = cytotoxicity
CNC(=O)[C@@H]1CN(C(=O)c2cc3cc(OC)ccc3[nH]2)C[C@H]1c1nc(C)no1 | inconclusive: 79.4 µM [inhibitor, single point] | –
O=C(NCC1CCOC1)C1CCN(c2nc(-c3ccccc3)nc3c2CCC3)CC1 (stereo not drawn) | inconclusive: 56.2 µM [inhibitor, partial curve, poor fit] | –
O=C(c1ccoc1)N1CCCC(CN2CCOCC2)CC1 (stereo not drawn) | – | inactive: 3.46%
O=C(c1coc(COc2ccc(F)cc2)n1)N1CCC(c2ccc(F)cc2)C1 (stereo not drawn) | inconclusive: 31.6 µM [inhibitor, partial curve, poor fit] | –
Cc1c(-c2ccccc2F)[nH]c2ccc(CNC(=O)CCn3cnnc3)cc12 | inconclusive: 89.1 µM [inhibitor, partial curve, poor fit] | –
CC1(C(=O)NCc2cccc(Cl)c2)CCc2cnc(N3CCOCC3)nc21 (stereo not drawn) | inconclusive: 70.8 µM [inhibitor, partial curve, poor fit] | –
CCOC(=O)CN1C(=O)CN(C(=O)c2cc3ccccc3s2)CCC(OC)c2ccccc21 (stereo not drawn) | – | inactive: -25.3%
O=C(CC1=C2CCCCC2N(Cc2ccccc2)C1=O)NCc1ccncc1 (stereo not drawn) | – | inactive: -19.8%
Cc1ccc(C(=O)N2CCN(c3ccc4nnc(-c5ccccc5)n4n3)CC2)cc1 | inconclusive: 44.7 µM [inhibitor, partial curve, poor fit] | –
COc1ccc(NC(=O)N[C@@H]2C=C[C@@H](c3c(C)nn(-c4ccc(C(C)(C)C)cc4)c3C)C2)cc1 | inconclusive: 50.1 µM [inhibitor, partial curve, poor fit] | –
O=C(c1ccccc1)N1CCC(N2C(=O)C(OCC3CC3)C23CCCCC3)CC1 (stereo not drawn) | – | inactive: -19%
CC(C)(C)N1CC(C(=O)NCCCc2ccc(Cl)cc2)CC1=O (stereo not drawn) | inconclusive: 39.8 µM [inhibitor, partial curve, poor fit] | –
Cn1cnc2cc(-c3cccc(F)c3)cc(C(=O)NCc3cccnc3)c21 | inconclusive: 79.4 µM [inhibitor, partial curve, poor fit] | –
O=C(NC1CCCCC1)N1CCCC(c2noc(COc3ccccc3F)n2)C1 (stereo not drawn) | inconclusive: 44.7 µM [inhibitor, partial curve, poor fit] | –
Cc1cccc(C(=O)N2CCCCCC2c2nc(-c3cccnc3)no2)c1 (stereo not drawn) | inconclusive: 50.1 µM [inhibitor, partial curve, poor fit] | –
O=C(c1coc(COc2ccc(F)cc2Cl)n1)N1C[C@H]2CC[C@H]1C2 | inconclusive: 50.1 µM [inhibitor, partial curve, poor fit] | –
COCC(=O)N1CCC2(CC1)OC(=O)N(Cc1cccc(OC)c1)C2(C)c1cccnc1 (stereo not drawn) | inconclusive: 56.2 µM [inhibitor, partial curve, poor fit] | –
COc1cccc(CN2C(=O)OC3(CCN(C(=O)c4cccc(C#N)c4)CC3)C2(C)c2cccnc2)c1 (stereo not drawn) | inconclusive: 7.08 µM [inhibitor, full curve, poor fit] | –
O=C(CCc1ccc(CC2CCN(Cc3c[nH]c4ccccc34)CC2)cc1)N1CCCC1 | active: 31.6 µM | –
CC(=O)Nc1ccc(C2(C(=O)N3CCC(N4CCCCC4)CC3)CCCCC2)cc1 | – | inactive: -9.95%
O=c1cc(-c2ccncc2)oc2c(-c3ccccc3Oc3ccccc3)nccc12 | inconclusive: 31.6 µM [inhibitor, partial curve] | –
